About 1,700 (3.3%) of roughly 52,000 compounds were called active. Cut-off read from the data, not from the text of the source: active = survival mostly below about 52% (no sharp cut-off); inactive = mostly above about 56%. The list shows a part of the results.
tested on: Wild type; assay: S. aureus survival, RN4220 and DeltatarO strains – OD600, teichoic acid synthesis inhibitors, primary screen (AID 463173); conditions: S. aureus RN4220 wild type/DeltatarO growth, OD600, 18 h, stronger effect = lower value, screened at 18.75 µg/mL (by protocol)

| Structure (SMILES) | survival |
| --- | --- |
| CCOCCc1nn2c(=O)cc(COC(=O)c3ccccc3Br)nc2s1 | inactive: 76% |
| CCOC(=O)C1(CCSC)NC(c2cccs2)C2C(=O)N(CC)C(=O)C21 (stereo not given) | inactive: 116% |
| O=C(Nc1ccccn1)NC12CC3CC(CC(C3)C1)C2 | inactive: 126% |
| C1=C(c2cccs2)OC(c2cccs2)=CC1c1cccs1 | inactive: 105% |
| CN(C)c1ccc(CNC(=O)CN2C(=O)c3cccnc3Oc3ccc(Cl)cc32)cc1 | inactive: 72% |
| Cc1oc2ccc(O)c(CN3CCN(Cc4ccccc4)CC3)c2c1C(=O)Nc1ccccc1 | inactive: 81% |
| CCOC(=O)c1cccc(NC(=O)Cn2c(CC(=O)N3CCCC3)nc3ccccc32)c1 | inactive: 106% |
| Cc1nn(CC(=O)NCc2cccc(Br)c2)c(=O)c2c1sc1ccccc12 | inactive: 124% |
| O=S(=O)(NCCc1nnc2ccc(SCc3ccc(C(F)(F)F)cc3)nn12)c1ccccc1 | inactive: 74% |
| Cc1cc(C)c(S(=O)(=O)NCCc2cc3cc(C)c(C)cc3[nH]c2=O)c(C)c1 | inactive: 63% |
| Cc1ccc(Nc2nc3ccc(C)cc3nc2-n2nc(C)cc2C)c(C)c1 | inactive: 80% |
| COc1ccc(NC(=O)CSc2nnc(-c3ccc(OC)cc3)s2)cc1 | inactive: 66% |
| COc1cccc(C(c2sc3nc(-c4ccco4)nn3c2O)N2CCOCC2)c1 (stereo not given) | inactive: 71% |
| O=C(C1COc2ccccc2O1)N1CCN(c2nc3c(F)cccc3s2)CC1 (stereo not given) | inactive: 90% |
| COc1ccc(N(CC(=O)NCc2ccccc2Cl)S(=O)(=O)c2c(C)[nH]c(=O)[nH]c2=O)cc1 | inactive: 79% |
| COCCNC(=O)C1CCC(CNS(=O)(=O)c2ccc3c(c2)CC(C)N3C(C)=O)CC1 (stereo not given) | inactive: 97% |
| CC(C)C(=O)Nc1nnc(S(=O)(=O)N2CCCCCC2)s1 | inactive: 87% |
| COc1cc(C(CC(=O)Nc2ccc(Br)cn2)N2Cc3ccccc3C2=O)cc(OC)c1OC (stereo not given) | inactive: 70% |
| O=S1(=O)CCC(NC(=S)SCCOc2ccccc2OCCO)C1 (stereo not given) | inactive: 110% |
| Cc1c(C(=O)Nc2cccc(F)c2)oc2c1-c1nn(Cc3c(F)cccc3Cl)cc1CC2 | inactive: 120% |
| CCCC1(C(=O)OC)NC(c2cc(OC)c(OC)c(OC)c2)C2C(=O)N(c3ccc(C)cc3)C(=O)C21 (stereo not given) | inactive: 105% |
| C=CCc1c(C)nc(SC)nc1Nc1ccc(C(=O)O)cc1 | inactive: 111% |
| Cc1oc2c(c1C(=O)Nc1ccccc1Br)C1=NCCN1C=N2 | inactive: 84% |

| Structure (SMILES) | survival |
| --- | --- |
| Cc1ccc(CNC(=O)c2c(O)nc3ccccn3c2=O)cc1 | inactive: 113% |
| Cc1ccc(Cn2c(=O)n(CC3CCC(C(=O)N4CCC(C)CC4)CC3)c(=O)c3sccc32)cc1 (stereo not given) | inactive: 66% |
| Cc1ccc(N(Cc2cccs2)C(=O)Nc2cccc(Cl)c2)cc1 | inactive: 84% |
| Cc1c(Cl)cccc1NC(=O)NCc1c(-n2cccc2)sc2c1CCCC2 | inactive: 88% |
| O=C(NCCc1cccs1)c1ccc(Cn2c(SCc3ccccc3)nc3cccnc32)cc1 | inactive: 80% |
| COc1cccc(CNC(=O)c2sc3nc4n(c(=O)c3c2C)CCC4)c1 | inactive: 115% |
| CCOC(=O)c1ccccc1NC(=O)c1cc2c(s1)-c1c(C)cccc1OC2 | inactive: 108% |
| CCOc1ccccc1NC(=O)Cn1cnc2c1c(=O)n(C)c(=O)n2C | inactive: 72% |
| COc1ccc(N2CC3=C(C2=O)C(c2ccc(O)c(OC)c2)NC(=O)N3C)cc1 (stereo not given) | inactive: 71% |
| CC(C)OCCCNc1sc(S(=O)(=O)c2ccccc2)nc1S(=O)(=O)c1ccc(Cl)cc1 | inactive: 83% |
| CCOc1ccccc1NC(=O)CSc1nc2c(oc3ccccc32)c(=O)n1C(C)C | inactive: 83% |
| COCCCNC(=O)c1cc(-c2ccc(OC)cc2)nc2n[nH]c(-c3ccc(Cl)cc3)c12 | inactive: 75% |
| Cc1c(C(=O)Nc2ccc(F)cc2F)oc2ccc3c(c12)C(=O)CC(C)(C)O3 | inactive: 98% |
| COc1ccc(CCNC(=O)c2cnc3ccc(C)cn3c2=O)cc1OC | inactive: 90% |
| Cn1ncc2c(NCc3ccc(Cl)cc3)ncnc21 | inactive: 75% |
| CCOc1ccc(NC(=O)CSc2ncn[nH]2)cc1 | inactive: 86% |
| Cc1nc(Nc2nc3ccccc3o2)nc(-c2ccc(Cl)cc2)c1C#N | inactive: 105% |
| Cc1ccsc1CN(Cc1ccco1)C(=O)c1ccc(Cl)cc1 | inactive: 65% |
| Nc1cc[n+](CC(O)CO)cc1 (stereo not given) | inactive: 98% |
| Cc1ccc(C)c(N2CCN(S(=O)(=O)c3ccc(-c4cc(C(F)(F)F)on4)s3)CC2)c1 | inactive: 75% |
| COc1cc(OC)c(N(C)C(=O)c2cn(C)c(=O)c3cc(OC)c(OC)cc23)cc1Cl | inactive: 74% |
| O=C(Nc1nc2c(F)cc(F)cc2s1)c1ccc2c(c1)OCCO2 | inactive: 100% |
| O=C(CN1C(=O)COc2ccc(S(=O)(=O)N3CCOCC3)cc21)Nc1ccc(F)c(Cl)c1 | inactive: 100% |

| Structure (SMILES) | survival |
| --- | --- |
| O=C(Nc1nc2ccc(F)cc2s1)c1nc(SCc2ccccc2F)ncc1Cl | inactive: 85% |
| Cc1c(Cl)cccc1NC(=O)C1CCCN(C(=O)c2cnn(-c3ccccc3)c2-n2cccc2)C1 (stereo not given) | inactive: 82% |
| O=C(NCCc1ccc(Cl)cc1)C(=O)NCC(c1ccc2c(c1)OCO2)N1CCOCC1 (stereo not given) | inactive: 121% |
| Cc1cc(C)n(C(=O)CNC(=O)Cc2ccccc2)n1 | inactive: 108% |
| Cc1cc(C)c(S(=O)(=O)NCCc2sc(-c3cccnc3)nc2C)c(C)c1 | inactive: 128% |
| O=C(Nc1cc(C(F)(F)F)ccc1Cl)c1cc(-c2cccs2)nc2ccccc12 | inactive: 68% |
| Cn1c(=O)c2cc(C(=O)N3CCN(c4cccc(C(F)(F)F)c4)CC3)sc2c2ccccc21 | inactive: 77% |
| COc1ccc(-c2ccc(/C=N/NC(N)=O)o2)cc1 | inactive: 114% |
| Cc1cc(S(=O)(=O)Nc2cc3c(cc2Cl)n(C)c(=O)c(=O)n3C)ccc1F | inactive: 70% |
| Cc1c(C(=O)Nc2cccc(C(F)(F)F)c2)oc2ccc(S(=O)(=O)N3CCC4(CC3)OCCO4)cc12 | inactive: 74% |
| COc1ccc(NC(=O)CSc2c3c(nc4ccccc24)CCC3)cc1Cl | inactive: 142% |
| CC(C)(C)C(=O)Nc1nnc2n1CCS2 | inactive: 77% |
| Cc1ccc2c(c1)N(C(=O)CCC(=O)Nc1ccc(F)cc1F)CC(C)O2 (stereo not given) | inactive: 75% |
| Cc1nn(S(=O)(=O)c2ccc(F)cc2)c(C)c1S(=O)(=O)N1CCCCC1 | inactive: 71% |
| CC(C)NC(=O)C1CCCN(S(=O)(=O)c2ccc(-n3cnnn3)cc2)C1 (stereo not given) | inactive: 103% |
| CC1CCc2c(sc3nc(C(C)C)n4c(SCC(=O)NCc5ccco5)nnc4c23)C1 (stereo not given) | inactive: 104% |
| CC(C)(C)c1ccc(C(=O)N2CCC(c3noc(-c4ccc(S(=O)(=O)N5CCCC5)cc4)n3)CC2)cc1 | inactive: 87% |
| Cc1ccccc1CNC(=O)CCc1cn(Cc2ccccc2C)c2ccccc12 | inactive: 85% |
| CCN(CC)S(=O)(=O)c1ccc(NC(=O)c2ccc3c(=O)n4c(nc3c2)CCCCC4)cc1 | inactive: 73% |
| CCOc1ccc(NC(=O)c2ccc3c(c2)nnn3C2CCCC2)cc1 | inactive: 124% |
| CCOc1ccccc1N(C)C(=O)c1cc(S(=O)(=O)NCCc2ccc(Cl)cc2)ccc1F | inactive: 58% |
| CCc1ccccc1NC(=O)CSc1nc(C)c(C(=O)Nc2ccccc2)c(-c2ccc(Cl)cc2)c1C#N | inactive: 77% |
| CCOC(=O)c1c(C)[nH]c(C)c1S(=O)(=O)N1CCC(C(=O)NCc2cccc(C)c2)CC1 | inactive: 76% |

| Structure (SMILES) | survival |
| --- | --- |
| O=C(Nc1ccc(-c2nc3ccccc3s2)c(O)c1)c1ccc(Br)cc1 | inactive: 85% |
| Cc1ccc(NC(=O)C2CCN(S(=O)(=O)c3cccc4nonc34)CC2)c(Cl)c1 | inactive: 108% |
| CCOC(=O)C1=C(CS(=O)(=O)c2ccc(C(C)(C)C)cc2)NC(=O)NC1c1cccc(OC)c1 (stereo not given) | inactive: 80% |
| C=CCc1ccccc1OCC(CN1CCCCC1)OC(C)=O (stereo not given) | inactive: 112% |
| Cc1cccc(NC(=O)CSc2nnc3[nH]c(=O)cc(C)n23)c1C | inactive: 83% |
| COc1ccc(-c2cc3c(=O)n(CC(=O)Nc4ccc(Br)c(C)c4)ccn3n2)cc1OC | inactive: 89% |
| COc1ccc(N2CCN(C(=O)c3cnc(SC)nc3C)CC2)cc1 | inactive: 59% |
| Cc1cc(S(=O)(=O)Nc2cc3c(cc2NCc2ccccc2)n(C)c(=O)n3C)ccc1F | inactive: 67% |
| O=C(CCn1c(=O)c2cccn2c2cccnc21)Nc1ccccc1Br | inactive: 80% |
| CCCc1c(C)c2ccccc2[nH]c1=O | inactive: 107% |
| O=C(CSCc1ccc(F)cc1)N1CCc2c([nH]c3ccccc23)C1c1ccc(F)cc1 (stereo not given) | inactive: 71% |
| Cc1ccc[n+](Cc2cnc(C)nc2N)c1 | inactive: 125% |
| COc1ccc(CCNC(=O)CCCCn2c(=O)c3ccccc3n(CC(=O)Nc3ccc(C)cc3C)c2=O)cc1OC | inactive: 108% |
| COC(=O)c1cccc(Cn2nnc3sc4c(c3c2=O)CCC(C(C)(C)C)C4)c1 (stereo not given) | inactive: 91% |
| O=C(COc1ccccc1)NCCc1csc(-c2cccc(F)c2)n1 | inactive: 80% |
| Cc1ccc(C)c(Nc2nc(-c3ccccc3)c3cc(Br)ccc3n2)c1 | inactive: 42% |
| N#Cc1cccc(NC(=O)Cn2nc(Cc3ccncc3)c3ccccc3c2=O)c1 | inactive: 123% |
| CCN1C(=O)C(Cc2nc3ccccc3c(=O)n2-c2ccc(OC)cc2)c2cc(C)ccc21 (stereo not given) | inactive: 91% |
| O=C(c1cccs1)N1CCCn2c1nc1ccccc12 | inactive: 106% |
| O=C(CSc1ncn[nH]1)n1c2ccccc2c2ccccc21 | inactive: 90% |
| Cc1cccc(C(=O)Nc2cccc(OCc3cc(=O)n4cccc(C)c4n3)c2)c1 | inactive: 76% |

Reference: PubChem BioAssay AID463173 (ICCB-Longwood Screening Facility, Harvard Medical School, 2010)
